# Experimental data taken from the supplement of paper PMC12217912.
# The list shows a part of the results. The full chains were built here from the parent and the listed change. Values near 0.05 are background.
# B1: TEV protease; numbered along this chain (parent)
# chain: MGESLFKGPRDYNPISSSICHLTNESDGHTTSLYGIGFGPFIITNKHLFRRNNGTLVVQSLHGVFKVKDTTTLQQHLVDGRDMIIIRMPKDFPPFPQKLKFREPQREERICLVTTNFQTKSMSSMVSDTSCTFPSGDGIFWKHWIQTKDGQCGSPLVSTRDGFIVGIHSASNFTNTNNYFTSVPKNFMELLTNQEAQQWVSGWRLNADSVLWGGHKVFMVKPEEPFQPVKEATQL
# Variants of: B1
# Experiment: raw area under fraction-flipped curve 0-4 h after induction (AUC4h, not background-subtracted), DNA-recorder readout of cleavage of the substrate (dimensionless); higher = more cleavage of the substrate by the protease variant
# Conditions: temperature: 34 °C; time window: 0-4 h after rhamnose induction
# Experimental: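 In vivo DNA recorder in E. coli TOP10(DE3) ΔrhaA at 34 °C. Each TEVp single-site mutant (parent TEVp 0) is paired with a single-site variant of the 7-mer TEVs (canonical ENLYFQ|S). The substrate sits between flexible linkers in a Bxb1-sfGFP-TEVs-SsrA fusion, so cleavage stabilises Bxb1 and speeds flipping of a recombination array, read by NGS. The value is the raw area under the fraction-flipped curve over 0-4 h after rhamnose induction (AUC4h), with ≥20 reads per time point. It is not background-subtracted; inactive controls average about 0.047.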
# 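Also: Bxb1 expression induced with 0.2% (w/v) L-rhamnose at OD600 near 0.5, cultures sampled hourly, flipped fraction per protease–substrate barcode pair counted by paired-end Illumina sequencing.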
Variant,area with substrate CNLYFQS,area with substrate DNLYFQS,area with substrate FNLYFQS,area with substrate GNLYFQS,area with substrate HNLYFQS,area with substrate INLYFQS,area with substrate KNLYFQS,area with substrate LNLYFQS,area with substrate NNLYFQS,area with substrate PNLYFQS,area with substrate QNLYFQS,area with substrate TNLYFQS,area with substrate VNLYFQS,area with substrate WNLYFQS,area with substrate YNLYFQS,area with substrate SNLYFQS,area with substrate MNLYFQS,area with substrate RNLYFQS
F133W,0.0603,0.0919,0.0702,0.093,0.0648,0.0619,0.0615,0.0703,0.0695,0.0739,0.0615,0.0645,0.0384,0.0605,0.0601,–,–,–
F140G,0.0721,0.0555,0.0664,–,0.0585,0.0541,0.0588,0.0595,–,0.0736,0.0428,0.0749,–,0.0428,0.0604,0.121,–,–
K148R,0.0625,0.0657,0.0603,0.053,0.0697,–,–,–,0.0611,0.0698,0.0661,0.0697,–,0.0535,0.0584,–,0.0927,–
K148Q,0.0692,0.0879,–,0.0693,0.0604,0.0713,0.0835,0.0988,0.0754,0.0649,0.0655,0.0578,–,0.0581,–,0.0661,0.0414,–
K148E,0.0681,0.0804,–,–,0.0641,0.0653,–,0.0642,0.0662,0.0611,0.0597,0.0623,0.0723,0.0532,0.0683,0.0653,0.0684,–
S169M,0.0558,0.0593,0.0537,0.0624,0.0674,0.0624,0.0547,0.0654,–,0.0613,–,0.069,0.0641,0.0318,0.0623,–,0.0614,0.0658
S169W,0.0473,0.0554,–,–,0.0542,–,–,–,–,–,–,–,–,0.0786,–,–,–,–
K142L,0.0784,0.117,0.0777,0.0721,0.073,0.0729,–,0.0869,0.0748,0.0665,–,0.0547,–,0.0583,–,0.0695,0.0692,–
K142I,0.0758,0.0764,0.0736,0.0662,0.0737,–,–,–,0.0689,0.0589,0.101,0.0666,–,0.0735,0.0608,0.0675,–,–
S154W,0.0614,0.0574,–,–,0.0543,–,0.0494,0.064,0.0654,0.0869,–,0.0633,–,0.0629,0.058,0.0591,0.0595,–
S154H,0.0574,0.0582,0.0617,–,0.0651,–,0.0556,–,0.0726,0.052,0.0386,0.0634,0.0532,0.0623,0.0547,0.0672,0.0657,–
S135R,0.0562,0.0562,0.0524,0.0468,0.0658,0.0692,0.0613,0.0615,0.0588,0.0532,–,0.0642,0.0615,0.0604,0.0643,0.0755,–,–
G166A,0.0498,0.0552,–,0.0427,0.0496,0.0455,0.0631,0.0514,0.0477,–,–,0.047,0.057,0.0349,0.0288,0.0503,–,–
G166D,0.0555,0.0434,0.0518,0.0422,0.0552,0.0525,0.0681,0.0481,–,0.0526,–,0.0611,–,0.0353,0.0489,0.0584,0.0462,0.0546
G166M,0.0462,0.0433,0.0331,0.0428,0.0584,0.0416,–,0.0454,–,0.0473,0.019,0.0536,–,0.0585,0.0351,–,0.0367,–
Q151M,0.0372,0.0878,0.0547,0.0789,0.0636,–,–,0.091,–,0.0595,–,–,0.076,–,0.0589,–,0.0534,–
Q151E,0.0709,0.09,0.0633,0.0605,0.0614,0.0642,–,0.0647,0.0619,0.0647,–,0.0521,0.0934,0.0491,0.0576,–,–,–
G150H,0.0609,0.0799,0.0599,0.0644,0.041,0.0573,0.0697,0.0537,0.0618,0.125,–,0.0634,0.061,0.0498,0.0584,0.0616,–,–
G150V,0.0638,0.0381,0.0564,0.0514,0.0623,–,0.0649,0.0587,0.0568,0.0622,–,0.0623,–,0.0528,0.0548,0.0477,0.0634,0.0525
L156H,0.0601,0.026,–,0.0582,0.0664,0.0524,0.0596,0.0548,–,0.046,0.0501,0.0715,0.0639,0.0104,0.0499,0.0636,–,–
L156E,0.0603,0.0533,0.0485,0.0599,0.0626,0.0428,0.0509,0.0526,0.0558,0.0435,–,0.0484,0.063,0.057,0.048,0.0688,0.0541,0.0545
L156Q,0.0475,0.051,0.0248,0.0547,0.0791,0.0461,0.064,–,0.0537,0.0478,–,0.0568,0.0542,0.0454,–,–,–,0.0552
C152P,0.0487,0.0541,–,0.0449,0.0499,0.0588,–,–,0.0665,0.0575,–,–,–,0.0568,0.0495,–,0.0536,–
I145K,0.049,0.117,–,–,0.0543,–,–,0.0615,–,0.0451,–,0.0622,0.0575,0.0354,0.0641,–,0.0529,–
D149Y,0.0678,0.072,–,0.0617,0.0489,0.0575,0.0688,0.0626,0.0531,0.0607,–,0.0451,0.0525,0.057,–,0.0677,0.07,–
G162P,0.0437,0.0635,0.0284,–,0.0581,0.0423,0.0488,–,0.0074,0.0542,–,0.0608,0.0532,0.0604,0.0427,0.0489,0.0647,–
